{"source": "the supplement of paper PMC3334620", "note": "In all, about 33,000 sequences were measured (“E-score (-0.5 to 0.5)”: median about -0.017, highest 2% from about 0.3 on). This is one part of the list."}
{"biological_target": "T1, Sut1 (UniProt P53032)", "T1 sequence": "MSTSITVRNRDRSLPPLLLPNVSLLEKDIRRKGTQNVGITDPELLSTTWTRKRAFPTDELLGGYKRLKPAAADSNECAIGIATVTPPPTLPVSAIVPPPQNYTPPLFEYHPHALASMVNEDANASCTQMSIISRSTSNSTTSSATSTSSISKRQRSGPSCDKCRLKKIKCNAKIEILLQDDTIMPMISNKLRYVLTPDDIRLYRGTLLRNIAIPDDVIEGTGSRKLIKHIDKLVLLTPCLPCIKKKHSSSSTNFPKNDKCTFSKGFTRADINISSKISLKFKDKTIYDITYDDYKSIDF", "assay": "PBM E-score (8-mer binding enrichment) (E-score (-0.5 to 0.5)); higher = stronger / more preferred TF binding; most listed sequences are background and not binding sites", "conditions": "protein concentration: 200 nM; construct: GST-full length", "how_it_was_run": "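GST-tagged yeast TFs (full-length or DNA-binding domain) were made by PURExpress in vitro transcription/translation and applied at about 100-200 nM to universal all-10-mer Agilent arrays. The arrays were made double-stranded by primer extension, on fresh or once-stripped slides. Bound protein was detected with fluorescent anti-GST, and scans were normalised with masliner. Each ungapped eight-base word, pooled with its reverse complement, received an E-score (modified Wilcoxon-Mann-Whitney statistic) from the Universal PBM Analysis Suite.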"}
{"sequence": "CTCTGGGA", "PBM E-score": -0.301}
{"sequence": "AAGAAGAG", "PBM E-score": 0.0502}
{"sequence": "TGTACTAA", "PBM E-score": 0.164}
{"sequence": "GCGACGCA", "PBM E-score": -0.178}
{"sequence": "CGTGTCTA", "PBM E-score": -0.178}
{"sequence": "GCGTGGAC", "PBM E-score": -0.234}
{"sequence": "ACCATGGA", "PBM E-score": -0.184}
{"sequence": "ACGCGAAC", "PBM E-score": -0.134}
{"sequence": "AGCTTTTA", "PBM E-score": 0.0431}
{"sequence": "CGGGCTAC", "PBM E-score": -0.0584}
{"sequence": "CTAACTGA", "PBM E-score": 0.0767}
{"sequence": "GATCAATA", "PBM E-score": 0.0565}
{"sequence": "ATAATTCG", "PBM E-score": 0.101}
{"sequence": "CAAGTAGC", "PBM E-score": -0.181}
{"sequence": "CGTCCACG", "PBM E-score": -0.127}
{"sequence": "AGAAACTA", "PBM E-score": 0.0533}
{"sequence": "CTCAGCTA", "PBM E-score": -0.13}
{"sequence": "TATGAGAA", "PBM E-score": 0.141}
{"sequence": "AGGAACAT", "PBM E-score": 0.0288}
{"sequence": "CGGTGCAA", "PBM E-score": -0.00847}
{"sequence": "ACCAAGTC", "PBM E-score": 0.166}
{"sequence": "CTCACCAG", "PBM E-score": -0.0993}
{"sequence": "TGCCGCAA", "PBM E-score": -0.0982}
{"sequence": "ACGTACCT", "PBM E-score": -0.195}
{"sequence": "CCTCACGC", "PBM E-score": -0.0319}
{"sequence": "CAATTCAC", "PBM E-score": 0.182}
{"sequence": "TGAGCACA", "PBM E-score": -0.0427}
{"sequence": "AATTCCGT", "PBM E-score": 0.317}
{"sequence": "CCCCGACA", "PBM E-score": 0.0397}
{"sequence": "ACGCATGA", "PBM E-score": -0.138}
{"sequence": "AGCAGGCG", "PBM E-score": -0.211}
{"sequence": "CGGGCCGC", "PBM E-score": -0.246}
{"sequence": "GACGTTGA", "PBM E-score": 0.0656}
{"sequence": "GCACAGGC", "PBM E-score": -0.0466}
{"sequence": "CAGACGGC", "PBM E-score": -0.269}
{"sequence": "TACAAAAA", "PBM E-score": 0.268}
{"sequence": "AACATTAG", "PBM E-score": 0.0473}
{"sequence": "CGTCACAC", "PBM E-score": -0.00776}
{"sequence": "CAGCAGGG", "PBM E-score": -0.27}
{"sequence": "CCCTCCAC", "PBM E-score": -0.0582}
{"sequence": "CGTGACTC", "PBM E-score": -0.117}
{"sequence": "ATCAAAAA", "PBM E-score": 0.196}
{"sequence": "GATATCCA", "PBM E-score": 0.0613}
{"sequence": "ATAAGACG", "PBM E-score": -0.0616}
{"sequence": "TATCCTGA", "PBM E-score": 0.0955}
{"sequence": "ACCGCGCG", "PBM E-score": 0.101}
{"sequence": "ACGGGTCC", "PBM E-score": 0.00301}
{"sequence": "ACAACTGG", "PBM E-score": -0.169}
{"sequence": "TTCTAGAA", "PBM E-score": 0.0328}
{"sequence": "ACATCTCA", "PBM E-score": 0.0619}
{"sequence": "ATTACCAG", "PBM E-score": -0.0573}
{"sequence": "ATCGAACC", "PBM E-score": -0.0351}
{"sequence": "ACAACTCG", "PBM E-score": 0.0329}
{"sequence": "ACAGTACC", "PBM E-score": -0.085}
{"sequence": "AGCATACC", "PBM E-score": -0.046}
{"sequence": "CAGGCATC", "PBM E-score": -0.164}
{"sequence": "CCAAAAGC", "PBM E-score": -0.0769}
{"sequence": "AGGATTAT", "PBM E-score": -0.0525}
{"sequence": "GCCTTATA", "PBM E-score": -0.0334}
{"sequence": "AATGATCT", "PBM E-score": -0.0167}
{"sequence": "CGGATGGA", "PBM E-score": 0.0349}
{"sequence": "CCTTATAA", "PBM E-score": 0.217}
{"sequence": "CGTCAAAG", "PBM E-score": -0.095}
{"sequence": "CGAAAACG", "PBM E-score": 0.00882}
{"sequence": "CATTCATC", "PBM E-score": -0.0281}
{"sequence": "GTGTGGGA", "PBM E-score": -0.0973}
{"sequence": "TCAGCGGA", "PBM E-score": 0.113}
{"sequence": "AATATGTG", "PBM E-score": 0.0989}
{"sequence": "CACAGTCA", "PBM E-score": -0.229}
{"sequence": "ACGTACCC", "PBM E-score": -0.0772}
{"sequence": "CATTTACC", "PBM E-score": 0.127}
{"sequence": "AGCATGAG", "PBM E-score": -0.0431}
{"sequence": "CGTTTCAG", "PBM E-score": 0.171}
{"sequence": "CGAGTATC", "PBM E-score": -0.101}
{"sequence": "GCGCCAGC", "PBM E-score": -0.257}
{"sequence": "CAACCAGC", "PBM E-score": -0.0595}
{"sequence": "ATCCCGGA", "PBM E-score": 0.328}
{"sequence": "ACAGGGGG", "PBM E-score": -0.258}
{"sequence": "AAATGGAT", "PBM E-score": 0.0439}
{"sequence": "AGGAGCGC", "PBM E-score": -0.116}
{"sequence": "GGCTGATA", "PBM E-score": -0.105}
{"sequence": "GAATTACC", "PBM E-score": 0.00994}
{"sequence": "GGCTGCCC", "PBM E-score": -0.159}
{"sequence": "GTACGGAC", "PBM E-score": 0.297}
{"sequence": "ACGAGCGG", "PBM E-score": -0.11}
{"sequence": "CCGGTTGA", "PBM E-score": 0.151}
